In all, about 320,000 compounds went through this assay and about 200 (0.062%) were called active. Inconclusive means that the source gave no clear call. Such entries were picked first, then a sample of the others. Calls follow the shape of the dose curve; as a rule, active = well fitted activation curve with a large enough effect; inconclusive = small, poorly fitted or top-dose-only effect; inactive = no such curve, though single readings can be large or run the other way. No potency is given beside an inconclusive call; the fits are too rough.
assay: qHTS assay for re-activators of p53 using a Luc reporter; settings: H1299 p53-A138V BP100-luciferase reporter, luminescence, 24 h; series mostly up to 92.2 µM; also: nearly all actives have a fitted effect of over 45% in size
Procedure, shortened: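 H1299 (p53-null), stable ts p53-A138V + BP100-Luc; 1000 cells/well, Opti-MEM/10% FBS; cpd 4 pt, 1:5; 24 h, 37 deg C, 5% CO2; detection reagent 10 min RT; luminescence.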
Potency is read from the fitted curve at half-maximal effect; tags tell the direction and shape of the fitted curve.

| SMILES | Potency |
| --- | --- |
| Nc1ccc(C(=O)OCc2nc3c(ccc4ccccc43)[nH]2)cc1 | inconclusive [activator, full curve, poor fit] |
| COc1cc(NC(=S)NCC2CCCO2)c(OC)cc1Cl (stereo not drawn) | inactive |
| CC1CCN(CC(O)COC2CC(C)CCC2C(C)C)CC1 (stereo not drawn) | inactive |
| O=C(Cc1ccccc1F)Nc1nc(-c2ccc(F)c(F)c2)cs1 | inconclusive [activator, partial curve, poor fit] |
| CCOc1ccc2c(c1)C(c1ccc(C)cc1)=NNC(c1ccc(C)cc1)=N2 | inconclusive [activator, partial curve, poor fit] |
| COc1ccc(-c2cc(-c3ccc(C)cc3)nc(SCc3nnc(-c4ccccc4)o3)c2C#N)cc1OC | inactive |
| Cc1cc(Cl)ccc1OCC(=O)N1CCCCC1 | inconclusive [activator, partial curve, poor fit] |
| COc1ccc(-c2noc(CSc3nc4sc(C)c(C)c4c(=O)n3-c3ccccc3)n2)cc1OC | inconclusive [activator, single point] |
| CCOc1ccc(C(=O)NCC(C)CN(C)C)cc1OCC (stereo not drawn) | inconclusive [activator, single point] |
| COCCNC(=O)c1cc2sc3ccccc3c2s1 | inconclusive [activator, partial curve, poor fit] |
| COC(=O)c1cc(OC)c(OC)cc1NC(=S)Nc1cccc(Cl)c1 | inactive |
| CCOC(=O)C1=C(N)n2c(s/c(=C/c3ccccc3)c2=O)=C(C(=O)OCC)C1c1ccccc1 (stereo not drawn) | inconclusive [activator, full curve, poor fit] |
| Cc1nn(C)c(C)c1NS(=O)(=O)c1ccccc1Cl | inconclusive [activator, partial curve, poor fit] |
| O=C1/C(=C/c2ccccc2F)SC(=S)N1CCC(=O)N1CCCCC1CCO (stereo not drawn) | inconclusive [activator, full curve, poor fit] |
| CCOCc1nnc(NC(=O)c2ccc(OC)cc2)s1 | inconclusive [activator, partial curve, poor fit] |
| Cc1cccc(/C(N)=N/OC(=O)c2ccc(Cl)cc2Cl)c1 | inconclusive [activator, full curve, poor fit] |
| CCS(=O)(=O)NCc1cn2c(C)csc2n1 | inconclusive [activator, partial curve, poor fit] |
| CCCc1[nH]nc2c1C(Cc1ccccc1)C(C#N)=C(N)O2 (stereo not drawn) | inactive |

Reference: PubChem BioAssay AID504706 (National Center for Advancing Translational Sciences (NCATS), 2011)
